Where a name gives a salt, the structure may show the parent alone. This is one part of the list. Reporter virus signal in Vero cells at 10 µM drug, 24 h, as % of DMSO wells; lower = more inhibition (cell loss is not separated). No active / inactive call. One pass, one plate of the library.
tested on: Rift Valley fever virus MP-12 vaccine strain (luciferase reporter) in Vero cells; test: reporter virus infection (Renilla luciferase) relative to DMSO control (% of DMSO); higher = less inhibition of virus replication; details: 10 µM; time (h post infection): 24
Description: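 Vero cells were pretreated for 1 h with 10 µM drug and kept in drug after infection with the reporter virus; luciferase at 24 h as % of DMSO wells. One pass, one plate of the library.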

Row | Structure (SMILES) | reporter virus infection
1 | CC1(C)O[C@@H]2C[C@H]3[C@@H]4CCC5=CC(=O)C=C[C@]5(C)[C@H]4[C@@H](O)C[C@]3(C)[C@]2(C(=O)CO)O1 [Desonide] | 85.6
2 | Oc1ccc(OCc2ccccc2)cc1 [Monobenzone (Benoquin)] | 74.1
3 | CC(=O)N[C@@H](CS)C(=O)O [Acetylcysteine] | 66.2
4 | CCCCC1C(=O)N(c2ccccc2)N(c2ccccc2)C1=O [Phenylbutazone (Butazolidin, Butatron)] | 95.1
5 | COC(=O)[C@@H]1CC2=CC(=O)CC[C@]2(C)[C@@]23O[C@@H]2C[C@@]2(C)[C@@H](CC[C@@]24CCC(=O)O4)[C@H]13 [Eplerenone] | 84.1
6 | COC(=O)[C@H]1[C@H]2C[C@@H]3c4[nH]c5cc(OC)ccc5c4CCN3C[C@H]2C[C@@H](OC(=O)c2cc(OC)c(OC)c(OC)c2)[C@@H]1OC [Reserpine] | 12.2
7 | Cc1cnc(C(=O)NCCc2ccc(S(=O)(=O)NC(=O)NC3CCCCC3)cc2)cn1 [Glipizide (Glucotrol)] | 94.8
8 | COc1cnc(NS(=O)(=O)c2ccc(N)cc2)nc1 [Sulfameter (Bayrena)] | 67.1
9 | CC(C(=O)O)c1ccc(-c2ccccc2)c(F)c1 (stereo not given) [Flurbiprofen (Ansaid)] | 81.1
10 | Nc1ccn([C@@H]2CS[C@H](CO)O2)c(=O)n1 [Lamivudine (Epivir)] | 102
11 | Nc1nc(=O)[nH]cc1F [Flucytosine (Ancobon)] | 79
12 | CN(C)C(=O)Oc1ccc[n+](C)c1 [Pyridostigmine Bromide (Mestinon)] | 50.7
13 | Nc1ccc(O)c(C(=O)O)c1 [Mesalamine (Lialda)] | 80.2
14 | Nc1ccn([C@@H]2O[C@H](CO)[C@@H](O)[C@@H]2O)c(=O)n1 [Cytarabine] | 60.2
15 | CS(=O)(=O)OCCCCOS(C)(=O)=O [Busulfan (Myleran, Busulfex)] | 82.9
16 | CC(C)(C)C(=O)OCOP(=O)(COCCn1cnc2c(N)ncnc21)OCOC(=O)C(C)(C)C [Adefovir Dipivoxil (Preveon, Hepsera)] | 34.2
17 | Nc1ccn([C@H]2CC[C@@H](CO)O2)c(=O)n1 [Zalcitabine] | 70.3
18 | NCCCCCC(=O)O [Aminocaproic acid (Amicar)] | 80.2
19 | COc1ccc(Cl)cc1C(=O)NCCc1ccc(S(=O)(=O)NC(=O)NC2CCCCC2)cc1 [Glyburide (Diabeta)] | 101
20 | CCCSc1ccc2[nH]c(NC(=O)OC)nc2c1 [Albendazole (Albenza)] | 20.7

Row | Structure (SMILES) | reporter virus infection
21 | O=C(c1ccccc1)c1ccc2n1CCC2C(=O)O (stereo not given) [Ketorolac (Toradol)] | 92.1
22 | CC1(C)O[C@@H]2C[C@H]3[C@@H]4CCC5=CC(=O)C=C[C@]5(C)[C@@]4(F)[C@@H](O)C[C@]3(C)[C@]2(C(=O)CO)O1 [Triamcinolone Acetonide] | 69.9
23 | Cc1cccc(Nc2ccncc2S(=O)(=O)NC(=O)NC(C)C)c1 [Torsemide (Demadex)] | 94.1
24 | C[C@]12C=CC(=O)C=C1CC[C@@H]1[C@@H]2C(=O)C[C@@]2(C)[C@H]1CC[C@]2(O)C(=O)CO [Prednisone (Adasone)] | 73
25 | CCC(C)(C)c1ccc(CC(C)CN2C[C@@H](C)O[C@@H](C)C2)cc1 (stereo not given in full) [Amorolfine Hydrochloride] | 107
26 | NC(=O)N/N=C/c1ccc([N+](=O)[O-])o1 [Nitrofurazone (Nitrofural)] | 44.4
27 | NS(=O)(=O)c1cc(C(=O)O)c(NCc2ccco2)cc1Cl [Furosemide (Lasix)] | 34
28 | Cn1c(=O)c2[nH]cnc2n(C)c1=O [Aminophylline (Truphylline)] | 74.2
29 | COc1ccc2c(c1)c(CC(=O)O)c(C)n2C(=O)c1ccc(Cl)cc1 [Indomethacin (Indocid, Indocin)] | 117
30 | CCCNC(C)C(=O)Nc1ccccc1C (stereo not given) [Prilocaine] | 26.8
31 | Oc1ncnc2[nH]ncc12 [Allopurinol (Zyloprim)] | 77
32 | C[C@H](CCC(=O)O)[C@H]1CC[C@H]2[C@@H]3[C@@H](O)C[C@@H]4C[C@H](O)CC[C@]4(C)[C@H]3CC[C@]12C [Ursodiol (Actigal Urso)] | 99.1
33 | Cc1ccccc1N1C(=O)c2cc(S(N)(=O)=O)c(Cl)cc2NC1C (stereo not given) [Metolazone (Zaroxolyn)] | 71.2
34 | CC(C)[N+]1(C)[C@@H]2CC[C@H]1C[C@@H](OC(=O)C(CO)c1ccccc1)C2 (stereo not given in full) [Ipratropium bromide] | 92.4
35 | CCCCC(=O)O[C@]1(C(=O)CO)[C@@H](C)C[C@H]2[C@@H]3CCC4=CC(=O)C=C[C@]4(C)[C@@]3(F)[C@@H](O)C[C@@]21C [Betamethasone valerate (Betnovate)] | 101
36 | C[C@]12CC[C@@H]3c4ccc(O)cc4CC[C@H]3[C@@H]1CC[C@@H]2O [Estradiol] | 98.2
37 | Nc1nc(=O)n([C@@H]2CS[C@H](CO)O2)cc1F [Emtricitabine (Emtriva)] | 89
38 | Clc1ccccc1C(c1ccccc1)(c1ccccc1)n1ccnc1 [Clotrimazole (Canesten)] | 36.6
39 | CCC(=O)OCC(=O)[C@@]1(OC(=O)CC)[C@@H](C)C[C@H]2[C@@H]3CCC4=CC(=O)C=C[C@]4(C)[C@@]3(F)[C@@H](O)C[C@@]21C [Betamethasone Dipropionate (Diprolene)] | 101
40 | CN(C)CCc1c[nH]c2ccc(C[C@H]3COC(=O)N3)cc12 [Zolmitriptan (Zomig)] | 73.4

Reference: the supplement of paper PMC4495339
